The values that follow come from the RNAGym collection of RNA variant scans (doi:10.1093/nar/gkz1192).

First the molecules themselves.
B1: CPEB3 Ribozyme (parent)
chain: UAACAGGGGGCCACAGCAGAAGCGUUCACGUCGCAGCCCCUGUCAGAUUCUGGUGAAUCUGCGAAUUCUGCUGUAUAUCUC

The source gives no read counts; variants with many changes may rest on few reads.

The variants in this data set derive from B1. The data set can be described thus: self-cleavage, relative activity (ratio to wild type); higher = more cleavage; in vitro, sequencing. The method, boiled down: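 CPEB3 self-cleaving ribozyme mutant libraries were made by rounds of error-prone PCR, barcoded, and transcribed in vitro with T7 RNA polymerase for 5 hours at 37°C. Cleavage occurred during transcription and a 15 min DNase I step before EDTA stop. RNAs were reverse transcribed with template switching and Illumina-sequenced, with DNA sequencing mapping barcodes to variants. Relative activity is the variant's cleaved/total read fraction divided by wild type's (minimum 5 reads), averaged across three batches.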
As to UAACAGGGGGCCACAGUAGUAGCGUCCACGUCGCAGCCCCUGUCAGAUUCUGGUGAAUCCGCGGACUCUGCUGUAUAUCUC [C17U A20U U26C U60C A64G U66C], the self-cleavage was 0.14.

For the variant UAACAGGGGGCCACAGUAGAAGCGUUCACGUCGCAGCCCCUGUCAGGUUCUGGUGAAUCUGCGAAUCCUGCUGUAUUUCUC [C17U A47G U67C A77U], the self-cleavage came to 0.22.

Turning to UAACAGGGGGCCACAGUAGGAGCGUACACGCCGCAGCCCCUGUCAGAUUCUGGUGAAUCUGCGAACUCAGCUGUAUAUCUC [C17U A20G U26A U31C U66C U69A], the self-cleavage was 0.08.

For UAACAGGGGGCCACAGUAGAAGCGAUCACGUCGAAGCCCCUGUCAGAUUCUGGUGAAUCAGCGAAUCCUGCUGAAUAUCCC [C17U U25A C34A U60A U67C U74A U80C], the self-cleavage amounted to 0.05.

As to UAACAGGGGGCCACAGUAGAAGCGUUCACGUCGCAGCCCCUGUCAGAUUCGGGUGAAUCUGCGAAUCCUGCUGUAUAUCUC [C17U U51G U67C], the self-cleavage came out at 0.13.

For the variant UAACAGGGGGCCACAGUAGGGGCGUUCACGUCACAGCCCCCGUCAGAUUCUGGUGAAUCUGCGAAUUCUGCUGUGUAUCUC [C17U A20G A21G G33A U41C A75G], the self-cleavage was found to be 0.15.

On to UAACAGGGGGCCACAGCCGAAGCGCUAACGUCGCAGCCCCCGUCGGAUUCUGGUGAAUCUGCGAAUUCUGCUGUAUAUCUC [A18C U25C C27A U41C A45G], for which the self-cleavage is 0.05.

In the case of UAACAGGGGGCCACAGCCGAAGCGUUCACGUUGCCGCCCCUGUCAGAUUCUGGUGAAUCUGCGAGUUCUGCUGUAUAUCUC [A18C C32U A35C A65G], the self-cleavage stood at 0.09.

Turning to UAACAGGGGGCCACAGUAGAAGCGUUCACGUCGCAGCCCCUGUCAGAUUCUGGUGAAUCGGCGGAUUCUGCUGUAUAUCUC [C17U U60G A64G], the self-cleavage is 0.12.

As for UAACAGGGGGCCACAGUAGAAGCGUUCACGUCGCAGCCCCUGCCAGAUUCUGAUGAAUCUGCGAAUUCUGCUGUAUAUCUC [C17U U43C G53A], the self-cleavage came out at 0.68.

Regarding UAACAGGGGGCCACAGCCGAAGCAUUCACGCCGCAGCCCCUGUCAGAUACUGGUGAAUCUGCGAAUUCUGCUGUUUAUCUC [A18C G24A U31C U49A A75U], the self-cleavage came out at 0.05.

Regarding UAACAGGGGGCCACAGUAGAAGCGUUCACGUCGCAGCCCCUGUCAGGUUCUGGUGAAUCUGCGAAUUCUGCAGUAUAUCUC [C17U A47G U72A], the self-cleavage came to 0.27.

UAACAGGGGGCCACAGUAGAAGCGUUCACGUCGCAGCCCCUGUCAGAUUCUGGAGAAUCUGCGAAUUCUGCUGUAAAUCUC [C17U U54A U76A]: the self-cleavage stood at 0.94.

As to UAACAGGGGGCCACAGCCGAAGCGUUCACGUCGUAGCCCCCGUCAGAUCCUGGUGAAUCUGCGAAUUCUGCUGUAUAUCUC [A18C C34U U41C U49C], the self-cleavage is 0.15.

For UAACAGGGGGCCACAGCCGAAGCGUUCACAUCGCAGCCCCUGUCAGAUUCUGGUGAAUCUGCGAAUUCUGCUGUACUUCUC [A18C G30A U76C A77U], the self-cleavage turned out to be 0.12.

On to UAACAGGGGGCCACAGGAGAAGCGUUCACGUCGCAGCCCCUGUCAGAUUCUAGUGAAACUGCGAAUUCUGCUGAAUAUCUC [C17G G52A U58A U74A], for which the self-cleavage was found to be 0.46.

Regarding UAACAGGGGGCCACAGUAGAAGCGAUCCCGUCGCAGCCCCUGUCAGAUUCUGGUGAAUCUGCGAAUUCAGCUGUAUAUCCC [C17U U25A A28C U69A U80C], the self-cleavage is 0.04.

As for UAACAGGGGGCCACAGGAGAAGCGUUCACGUCGCAGCCCCCGUCGGAUUCUGGUGAAUCUGCGAAUUCCGCUGAAUAUCCC [C17G U41C A45G U69C U74A U80C], the self-cleavage is 0.09.

For the variant UAACAGGGGGCCACAGCCGAAACGUUCACGUCGCAGCCCCUGUCAGAUUCUGGUGAUUCUGCGAGUUCUGCUGUAUAUCUC [A18C G22A A57U A65G], the self-cleavage is 0.16.

Turning to UAACAGGGGGCCACAGUAGAAGCGUCCACGUCGCAGCCCCUGUCAGAUUCUGGUGAAUCUGCGAAUUCCGCUGUAUAUCUU [C17U U26C U69C C81U], the self-cleavage came to 0.06.

Consider UAACAGGGGGCCACAGCCGAAGCGAUCACGUCGCAGCCCCUGUCAGAUUCUGGUGAAUCUGCGAAUUCUGCUAUAUAUCUC [A18C U25A G73A], for which the self-cleavage was determined as 0.36.

As for UAACAGGGGGCCACAGUAGAAGCGUUCACGUCGCAGCCCCUGUCAGAUUCUGGUGAAUCUGCGAAUUCUGCUGUGUAUCCC [C17U A75G U80C], the self-cleavage turned out to be 0.41.

Turning to UAACAGGGGGCCACAGUAGAAGCGUUCUCGUCGCAGCCCCUGUCAGAUUCUGGUGAAUCUGCGAAUUCAGCUGUAUACCUC [C17U A28U U69A U78C], the self-cleavage is 0.24.

UAACAGGGGGCCACAGCCUAAGCGUUCACGUCGCAGCCCCUGUCAGAUUCUGGUGAAUCUGCGAUUUCUGCUGUAUAUCUC [A18C G19U A65U]: the self-cleavage worked out at 0.17.

Take UAACAGGGGGCCACAGCCGAAGCGCUCACGUCGCAGCCCCUGUCAGAUUCUGGUGAAUCAGCGAAUUCUGCUGUAUAUCUC [A18C U25C U60A]: the self-cleavage was 0.07.

Take UAACAGGGGGCCACAGCCGAAGAGUCCACGUCGCAGCCCCUGUCUGAUUCUGGUGAAUCUGCGAAUUCUGCUGUACGUCUC [A18C C23A U26C A45U U76C A77G]: the self-cleavage amounted to 0.18.

Turning to UAACAGGGGGCCACAGUAGAAGCCUUCACGACGCAGCCCCUGUCAGAUUCUGGUGUAUCUGCGAAUUCUGCUGUAUAUCUC [C17U G24C U31A A56U], the self-cleavage is 0.22.

On to UAACAGGGGGCCACAGUAUAAGCGUUCACGUCGCAGCCCCUGUCUGGUUCUGGUGAAUCAGCGAAUUCUGCUGUAUAUCUC [C17U G19U A45U A47G U60A], for which the self-cleavage came to 0.08.

In the case of UAACAGGGGGCCACAGUAGAAGCGUUCACGUCGCAGCCCCUGUCAGAUUCUGGAGAAUCUGCAAACUCUGCUGUAUAUCUC [C17U U54A G63A U66C], the self-cleavage came to 0.21.

As to UAACAGGGGGCCACAGCCGAAGCCUUCACGUCGCAGCCCCUGUCAGAUUCUGGUGAAUCUUCGAAUUCUGCUGUAUAUCUC [A18C G24C G61U], the self-cleavage came to 0.22.

Take UAACAGGGGGCCACAGUAGAAGCGUUCACGUCGCAGCCCCUGUCAGAUUCCGGUGAAUCUGCGGAGUCUGCUGUAUAUCUC [C17U U51C A64G U66G]: the self-cleavage was found to be 0.18.

With UAACAGGGGGCCACAGUAGAAGCGUUCACGUCGCAGCCCCCGUCAGAUUCUGGUGAAUCCGCGAAUUCUGCUGUAUAUCCC [C17U U41C U60C U80C], the self-cleavage was determined as 0.2.

As to UAACAGGGGGCCACAGUAGAAGCGUCCACGACGCAGCCCCUGUCAGAUUCUGGUGAAUCUGCGAAUUCUGCUGUAUAUCUC [C17U U26C U31A], the self-cleavage turned out to be 0.08.

For the variant UAACAGGGGGCCACAGUAGAAGCGCUCACGUCGCAGCCCCUGUCAGAUUCUGGUGAACCUGCGAAUUCUGCUGUAUAUCUC [C17U U25C U58C], the self-cleavage came out at 0.15.
